Measurements: the supplement of paper PMC10338343
± gives the standard deviation. The full ranking holds about 5,500 sequences; the median of “pre-steady-state target cleavage rate” is about 0.1, and the highest 2% start at about 0.64. The entries are a selection whose mix differs from that of the whole data set.

What follows are sequences tested on MIWI (PIWIL1) piRISC loaded with piRNA #2 (30 nt) (assay: pre-steady-state target cleavage rate (min^-1); MIWI and MILI are mouse PIWI proteins and EfPiwi is from a freshwater sponge; tags in brackets are library labels; higher = faster piRNA-guided slicing of the target). Settings: guide: piRNA #2 5'p-UUAGGUAACCCAGUAGAUCCAGAGGAAUUC; auxiliary factor: 500 nM mouse GTSF1.
Procedure, shortened: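 Sequencing of uncleaved targets, normalised to depth and to weakly complementary targets, was the readout of this Cleave-'n-Seq assay. A transcribed, DNA-blocked target RNA library (0.1 nM) was mixed with 1 nM active affinity-purified piRISC carrying one synthetic guide, with or without 500 nM GTSF1 partner protein, in HEPES–potassium acetate buffer at 33 °C for 0–8 or 0–960 min. Three trials were pooled, k3 was capped at 0.0001 min^-1, and a burst-and-steady-state fit gave the pre-steady-state cleavage rate.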

Row | Sequence | pre-steady-state target cleavage rate
1 | CUUUGUCCUCUGGAUCUACUGGGUUACCUAA | 0.205 ± 0.038
2 | CUUAUGCACUGGAUCUACUGGGUUACCUAA | 0.345 ± 0.029
3 | CUUUUCCUCUGGAUCUACUGGCAUACCUAA | 0.00991 ± 0.0033
4 | CUUAACCUCAGGAUGUACUGGGUUACCUAA | 0.587 ± 0.053
5 | CUUAACCUCUGGAUGUACUGGGUUAGCUAA | 0.12 ± 0.015
6 | CAAUUCCUCUGGAUCUACUGGGUCACCUAA | 0.327 ± 0.055
7 | CUAUUCCUCUGGAUCUACUGGGUUACCUA | 0.427 ± 0.067
8 | GUAAUUCCUCUGGAUCUACUGGGUUACCUAA | 0.0353 ± 0.019
9 | CUAUUCCGCUGGAUCUACUGGGUUACCUAA | 0.479 ± 0.047
10 | CUUAAGCUGUGGAUCUACUGGGUAACCUAA | 0.0396 ± 0.028
11 | CUUUUCCUCUGGAUCUUCUGGGUUACGUAA | 0.42 ± 0.043
12 | CUUAAGGUCUGGAUCAACUGCGUUACCUAA | 0.121 ± 0.042
13 | CUUAUCCUCGUGGAUCUACUGGGUUACCUAA | 0.161 ± 0.032
14 | GAAUUCCUCUGGAACUUCUGGGUUACCUAA | 0.325 ± 0.037
15 | CUAUUCCUCUGGAACUACUGGGUUACCUAA | 0.42 ± 0.038
16 | CUUAAGGUCUGGAUCUACUGGGAUACCUUA | 0.0489 ± 0.01
17 | CUAUUGCUCUGGAUCUACUGGGUUACGUAA | 0.472 ± 0.053
18 | CUUAAGGAGACCUAGUUCUGCGUUACCUAA | 0.00336 ± 0.0026
19 | CUUAAGCUCUGGAUCUACUGGGAAACCUAA | 0.0505 ± 0.011
20 | GAAUUCGUCUCGAUCUACUGGGUUACCUAA | 0.451 ± 0.052
21 | CUUAAGGAGAGGAUCUACUGGGUUACCUCAA | 0.00948 ± 0.0055
22 | CUUAACCUCUGGAACUAGUGGGUUACCUAA | 0.139 ± 0.016
23 | CUUAUCCUCUGGGAUCUACUGGGUUACCUAA | 0.419 ± 0.035
24 | CUUAAGGAGAGGAUCUACAGGGUUACGUAA | 0.00521 ± 0.0049
25 | GAAUUCCUCUGGUUCUACUGGGUUACGUAA | 0.618 ± 0.035

Row | Sequence | pre-steady-state target cleavage rate
26 | CUUAAGGUCUGGAUCUACUGCGAUACCUAA | 0.0768 ± 0.023
27 | CAAUUCCUCUGGAUCUACUGGGUAACCUUA | 0.168 ± 0.044
28 | CUUAUGCUCUGGAUCUACAGGGUUACCUAA | 0.106 ± 0.012
29 | CUUAAGGAGUGGAUCUACUGGGUAUCCUAA | 0.0075 ± 0.0043
30 | CUUAAGGGCUGGAUCUACUGGGUUACCUAA | 0.159 ± 0.037
31 | CUUUUCGUCUGGAUCUACUGGGAUACCUAA | 0.261 ± 0.037
32 | CAUUUCCUCUGGAUCUACUGGGUUAGCUAA | 0.403 ± 0.081
33 | CUUUUCCUCUGGAUCUACAGGGUUUCCUAA | 0.143 ± 0.021
34 | CAAUUCCACUGGAUCUACUCGGUUACCUAA | 0.0731 ± 0.021
35 | CUUAUCCUCUGGAUCUACUGGGUUUCCUAA | 0.369 ± 0.07
36 | CUUAUCCUCUGGAUCUUCUGGGUUACCAAA | 0.209 ± 0.048
37 | CUUUUCCUCUGGAUCUACUGGGAUACCAAA | 0.152 ± 0.035
38 | CUUAAGCUCUGGAACUACUGGCUUACCUAA | 0.0572 ± 0.013
39 | GAAUUCCUCUGGAUCUACUGGGUUACGAAA | 0.353 ± 0.052
40 | GAAUUCCUCUGGAUCUAGAGGGUUACCUAA | 0.0178 ± 0.0056
41 | CAAUUCCUCUGGAUCUACUGGGAUACCUUA | 0.219 ± 0.046
42 | CUAUUCUCUCUGGAUCUACUGGGUUACCUAA | 0.208 ± 0.028
43 | CUUUUCCUCUGCAUGUACUGGGUUACCUAA | 0.437 ± 0.023
44 | CUUAACCUCAGCAUCUACUGGGUUACCUAA | 0.265 ± 0.023
45 | CAAUUCCUCUGGAUGUACUGGGUUUCCUAA | 0.395 ± 0.069
46 | CUUAUCCUCUGGAUCAACUGGGAUACCUAA | 0.148 ± 0.022
47 | CUUAAGGUCUGGAUCUAGUGGGUUUCCUAA | 0.0268 ± 0.0058
48 | CUUAAGGAGUGCGAUCUACUGGGUUACCUAA | 0.0085 ± 0.0067
49 | CUUAAGGAGACCUACUACACCGUUACCUAA | 0.00443 ± 0.0017
50 | CUUAUCCACUGGAUCUACUGCGUUACCUAA | 0.444 ± 0.06

Row | Sequence | pre-steady-state target cleavage rate
51 | CUUUUCCUCUGGAUGUACUGGGUUAGCUAA | 0.286 ± 0.033
52 | GAAUACCUCUGGAUCUACUGGGUUUCCUAA | 0.298 ± 0.056
53 | GAAUUCCUCUGGAUCUACUGGGUAACCAAA | 0.112 ± 0.038
54 | GAAUUCCACUGGAUCUACUGGCUUACCUAA | 0.194 ± 0.021
55 | GAAUUCCUCUGGAUCUACUUGGGUUACCUAA | 0.00445 ± 0.0039
56 | GAAUUCCUCUGGAACUACUGCGUUACCUAA | 0.345 ± 0.039
57 | CUUAAGGACUGGAUCUACUGGCUUACCUAA | 0.0439 ± 0.032
58 | CUUAAGGACUGGUUCUACUGGGUUAGCUAA | 0.0222 ± 0.021
59 | CUUAAGGAGUGGAUCUACUGGGUUACUUAA | 0.222 ± 0.038
60 | CUUAAGGACUGGAUCUAUUGGGUUACCUAA | 0.0994 ± 0.033
61 | GAAUUCCUCUGGAUCUAAUGGGUUACCUAA | 0.121 ± 0.022
62 | CUUAAGCUCAGGAUGUACUGGGUUACCUAA | 0.33 ± 0.037
63 | GAAUUCGUCUGGAUCUACUGGGUUAGCUAA | 0.293 ± 0.068
64 | GAAUUCCUCUGGAUCUACUGGGUAACCUUA | 0.184 ± 0.048
65 | CUUAACCUCUGGAUCUACUGGGUUGACCUAA | 0.153 ± 0.014
66 | CUUUUCCUCUGGAUCUACUGCGUAACCUAA | 0.174 ± 0.032
67 | GAAUUCCUCAGGAUCUUCUGGGUUACCUAA | 0.442 ± 0.046
68 | CUAUUCCUCAGGAUCUACUGGGUUACCUAA | 0.595 ± 0.064
69 | CUAUUCCUCCUGGAUCUACUGGGUUACCUAA | 0.613 ± 0.06
70 | CUUAACCUCUGGAUCUACAGGGUUACCAAA | 0.138 ± 0.018
71 | CUUAAGCUCUGCAUCUACUGGGUUACCAAA | 0.18 ± 0.026
72 | CUAUUCCUCUGUGAUCUACUGGGUUACCUAA | 0.385 ± 0.03
73 | CAAUUCCUGUGGAUCUACUGGGUUUCCUAA | 0.339 ± 0.049
